In all, about 310,000 compounds went through this assay and about 2,200 (0.71%) showed an effect of 50% or more. Effects have a minus sign here. The list shows a part of the results.

In this assay the target is human ether-à-go-go-related gene (hERG) potassium channel (human, UniProt Q12809). Nature of the assay: primary screen, population patch clamp on CHO cells stably expressing hERG.
Sequence of human ether-à-go-go-related gene (hERG) potassium channel (Q12809 whole entry, looked up): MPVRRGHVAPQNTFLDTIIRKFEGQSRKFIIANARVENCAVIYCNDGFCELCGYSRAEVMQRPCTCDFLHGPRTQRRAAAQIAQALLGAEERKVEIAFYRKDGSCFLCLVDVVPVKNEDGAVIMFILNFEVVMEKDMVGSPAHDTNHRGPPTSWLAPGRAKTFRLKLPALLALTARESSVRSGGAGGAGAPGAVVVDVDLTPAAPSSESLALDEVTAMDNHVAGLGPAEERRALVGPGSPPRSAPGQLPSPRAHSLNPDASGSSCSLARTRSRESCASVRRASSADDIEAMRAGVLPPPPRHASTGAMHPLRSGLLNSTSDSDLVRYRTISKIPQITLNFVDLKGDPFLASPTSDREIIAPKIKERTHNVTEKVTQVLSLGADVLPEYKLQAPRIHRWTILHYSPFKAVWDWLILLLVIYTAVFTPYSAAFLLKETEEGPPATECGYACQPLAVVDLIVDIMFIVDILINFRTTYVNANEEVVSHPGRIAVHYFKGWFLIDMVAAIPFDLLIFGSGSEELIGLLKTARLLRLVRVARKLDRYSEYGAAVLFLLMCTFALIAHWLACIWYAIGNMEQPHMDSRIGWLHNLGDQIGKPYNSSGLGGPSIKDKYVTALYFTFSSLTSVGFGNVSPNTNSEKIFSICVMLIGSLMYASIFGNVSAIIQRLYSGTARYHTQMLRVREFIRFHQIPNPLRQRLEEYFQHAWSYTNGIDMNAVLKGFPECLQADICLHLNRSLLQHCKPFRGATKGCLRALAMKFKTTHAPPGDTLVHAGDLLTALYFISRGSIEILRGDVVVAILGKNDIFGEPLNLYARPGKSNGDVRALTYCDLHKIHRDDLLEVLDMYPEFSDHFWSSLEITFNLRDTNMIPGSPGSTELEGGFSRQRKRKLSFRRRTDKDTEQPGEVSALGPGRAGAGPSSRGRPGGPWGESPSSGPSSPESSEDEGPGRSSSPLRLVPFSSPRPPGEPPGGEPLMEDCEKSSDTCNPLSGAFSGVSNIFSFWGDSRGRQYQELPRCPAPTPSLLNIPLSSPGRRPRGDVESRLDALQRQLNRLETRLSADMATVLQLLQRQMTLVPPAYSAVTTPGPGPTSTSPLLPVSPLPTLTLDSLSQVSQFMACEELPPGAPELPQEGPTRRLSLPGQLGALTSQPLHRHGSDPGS
As for `Clc1nc(-c2n[nH]nc2Cl)n[nH]1`, the “hERG current change (%, negative = inhibition) at 1uM” value is given as 9.59%.

On to `NS(=O)(=O)OCc1ccc(C(F)(F)F)cc1`, for which the “hERG current change (%, negative = inhibition) at 1uM” value is 5.62%.

For `O=C(O)C(Cc1c[nH]c2ccccc12)N1Cc2ccccc2C1=O` (stereo not shown), the “hERG current change (%, negative = inhibition) at 1uM” value is listed as 8.38%.

In the case of `S=C(NCc1ccco1)Nc1ccccc1`, the “hERG current change (%, negative = inhibition) at 1uM” value is given as 10.3%.

For the compound `Cc1cccc(N2CCN(C(=O)CCCn3c(=S)[nH]c4cc5c(cc4c3=O)OCO5)CC2)c1C`, the “hERG current change (%, negative = inhibition) at 1uM” value was found to be 11.7%.

For the compound `COc1ccc(OC)c(NC(=O)CNC(=O)Cn2cnc3sc(C)cc3c2=O)c1`, the “hERG current change (%, negative = inhibition) at 1uM” value amounted to 9.84%.

Take `O=c1[nH]c(=O)n(Cc2ccco2)c(O)c1C=NC1CC1`: the “hERG current change (%, negative = inhibition) at 1uM” value is reported as 8.68%.

Take `O=C(COc1c(Cl)cccc1Cl)Nc1ccccc1N1CCCC1`: the “hERG current change (%, negative = inhibition) at 1uM” value turned out to be 6.21%.

On to `O=C(COC(=O)c1c(F)cccc1F)Nc1ccccc1OC(F)F`, for which the “hERG current change (%, negative = inhibition) at 1uM” value turned out to be 9.57%.

Take `O=C(Nc1ccccc1N1CCCCC1)c1ncoc1-c1ccc(F)cc1`: the “hERG current change (%, negative = inhibition) at 1uM” value stood at 13.1%.

On to `Cc1ccc(S(=O)(=O)N(C)C)cc1NC(=O)/C=C/c1cccs1`, for which the “hERG current change (%, negative = inhibition) at 1uM” value was found to be 5.45%.

Consider `COc1cccc(-c2nnc(NC(=O)c3ccc4ncsc4c3)o2)c1`, for which the “hERG current change (%, negative = inhibition) at 1uM” value was determined as 0.153%.

`CC(=O)c1cnc(SCCN2C(=O)c3ccccc3C2=O)nc1C`: the “hERG current change (%, negative = inhibition) at 1uM” value was determined as 13.8%.

Turning to `Cc1nnc(NC(=O)c2ccc(Br)o2)s1`, the “hERG current change (%, negative = inhibition) at 1uM” value was found to be 15.2%.

On to `CC(C)N(Cc1ccccc1)C(=O)Cn1c(=O)cnc2ccccc21`, for which the “hERG current change (%, negative = inhibition) at 1uM” value is reported as 0.322%.

Turning to `COc1ccccc1CNC(=O)c1nn(C)c2c1CS(=O)(=O)c1ccccc1-2`, the “hERG current change (%, negative = inhibition) at 1uM” value was found to be 12%.

`Cc1cc(=O)n2[nH]c(N)c(N=Nc3ccccc3)c2n1`: the “hERG current change (%, negative = inhibition) at 1uM” value turned out to be 1.55%.

With `O=C(c1cc(-c2ccccc2Cl)nc2ccccc12)N1CCOCC1`, the “hERG current change (%, negative = inhibition) at 1uM” value was determined as 15.3%.

Take `Cl.O=C(CN1CCCCC1)c1ccc2c(c1)OCO2`: the “hERG current change (%, negative = inhibition) at 1uM” value was 3.87%.

Regarding `COc1cc2nc3occc3c(OC)c2cc1OC`, the “hERG current change (%, negative = inhibition) at 1uM” value is -3.72%.

As for `COc1ccc2[nH]c(C(=O)Nc3ccc4c(c3)OCO4)cc2c1`, the “hERG current change (%, negative = inhibition) at 1uM” value was determined as 12.9%.

`COc1ccc(/C=C2\SC(=S)N(CCC(=O)NCCCn3ccnc3)C2=O)cc1`: the “hERG current change (%, negative = inhibition) at 1uM” value turned out to be 1.22%.

For the compound `CN1C(=O)c2cccc3c(N)ccc(c23)C1=O`, the “hERG current change (%, negative = inhibition) at 1uM” value came out at 8.82%.

In the case of `CCCOc1ccccc1N/C(=N/c1nc(C)cc(C)n1)NC(=O)Nc1ccc(Cl)cc1`, the “hERG current change (%, negative = inhibition) at 1uM” value came out at 8.59%.

Consider `CCN(CC)c1nc(C)nc2c1sc(=S)n2C`, for which the “hERG current change (%, negative = inhibition) at 1uM” value was determined as 8.96%.

`COc1ccc(N/C=C\C(=O)c2ccc3ccccc3c2)cc1`: the “hERG current change (%, negative = inhibition) at 1uM” value was determined as 13.8%.

On to `COC(=O)N/N=C/c1ccc(OS(=O)(=O)c2ccc(C)cc2)c(OC)c1`, for which the “hERG current change (%, negative = inhibition) at 1uM” value was found to be 5.3%.

Consider `CCC1CCCCN1Cc1ccc(N)cc1` (stereo not shown), for which the “hERG current change (%, negative = inhibition) at 1uM” value is reported as -0.974%.

Turning to `O=C(CCN1C(=O)/C(=C/c2cccs2)SC1=S)Nc1cccc(C(=O)O)c1`, the “hERG current change (%, negative = inhibition) at 1uM” value is given as 18.6%.

In the case of `Cc1nc(SCC(=O)NCC2CCCO2)c2c3c(sc2n1)CCC3` (stereo not shown), the “hERG current change (%, negative = inhibition) at 1uM” value is on record as -4.41%.

Take `O=C(CC1CCCC1)N1CCCC(Nc2ccc(F)cc2)C1` (stereo not shown): the “hERG current change (%, negative = inhibition) at 1uM” value turned out to be 10.4%.

Turning to `COC(=O)CCCC[C@H]1SC[C@H]2NC(=O)N[C@]21O`, the “hERG current change (%, negative = inhibition) at 1uM” value was 7.23%.

With `COc1cccc(-n2nnc3c(=O)n(Cc4ccc(Br)cc4)cnc32)c1`, the “hERG current change (%, negative = inhibition) at 1uM” value worked out at 1.13%.

Take `CC(Sc1nnnn1C1CC1)C(=O)N1CC(=O)Nc2ccccc21` (stereo not shown): the “hERG current change (%, negative = inhibition) at 1uM” value is on record as 16.6%.

Consider `CC(C)NS(=O)(=O)c1ccc(OCC(=O)NC(C)c2ccccc2)cc1` (stereo not shown), for which the “hERG current change (%, negative = inhibition) at 1uM” value is -4.86%.

For `O=C(CCC(=O)N1CCN(C2CCCC2)CC1)Nc1nnc(C(F)(F)F)s1`, the “hERG current change (%, negative = inhibition) at 1uM” value is recorded as 13%.

On to `O=C(Nc1ccccc1)N1CCN(c2nc(-c3ccccc3)ns2)CC1`, for which the “hERG current change (%, negative = inhibition) at 1uM” value is on record as 2.1%.

On to `CCOc1c2ccc(C(=O)NCC34CC5CC(CC(C5)C3)C4)cc2nn1CC`, for which the “hERG current change (%, negative = inhibition) at 1uM” value is 5.36%.

As for `O=C(COc1ncnc2c1cnn2-c1ccccc1)Nc1ccc(S(=O)(=O)N2CCCCC2)cc1`, the “hERG current change (%, negative = inhibition) at 1uM” value was -1.32%.

Take `O=S(=O)(CCCc1ccccc1)c1ncn[nH]1`: the “hERG current change (%, negative = inhibition) at 1uM” value stood at 13.9%.

In the case of `CCOc1nc(OCC)nc(N2CCC(C)CC2)n1`, the “hERG current change (%, negative = inhibition) at 1uM” value stood at 4.4%.

`CCCCN(C(=O)C1CCC1)c1c(N)n(CC(C)C)c(=O)[nH]c1=O`: the “hERG current change (%, negative = inhibition) at 1uM” value is given as 8.99%.

As to `COc1ccc(Cn2c(-c3ccc(Cl)cc3)c[n+]3ccccc23)cc1.[Br-]`, the “hERG current change (%, negative = inhibition) at 1uM” value was found to be 1.57%.

`Cn1c(=O)cc(OCC(=O)NCCCN2CCN(c3ccccc3F)CC2)c2ccccc21`: the “hERG current change (%, negative = inhibition) at 1uM” value is given as -10.2%.

`O=C(CSc1nnc(NC(=O)c2ccccc2F)s1)NCC1CCCO1` (stereo not shown): the “hERG current change (%, negative = inhibition) at 1uM” value turned out to be 7.71%.

On to `COc1ccc(-n2c(=S)[nH]c3cc(C(=O)N4CCN(c5ccccc5)CC4)ccc3c2=O)c(OC)c1`, for which the “hERG current change (%, negative = inhibition) at 1uM” value stood at 19.9%.

The values are drawn from article PMC4336329 (PLoS ONE, 2015).
